Experimental data from ChEMBL document CHEMBL1201862, “PubChem BioAssay data set” (2004).
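48-hour exposure; five concentrations; linearly interpolated endpoints. GI50 = concentration required for 50% inhibition of growth.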 The source made the active and inactive calls. Cut-off read from the data, not from the text of the source: active = GI50 up to about 1.1 µM and inactive = higher.

Test system: NCI-H322M
Test: NCI anticancer screen, dose series, 48 h

Row | SMILES | GI50
1 | COc1cc(C=C2C(=O)OC(C)(C)OC2=O)cc(OC)c1OC | inactive: > 100 µM
2 | COc1c2c(c3c(c1CCC(=O)O)OC(C)(C)C=C3)OC(C)(C)C=C2 | inactive: > 100 µM
3 | COc1ccc2oc(=N)c(C(=O)NCc3ccccc3)cc2c1 | inactive: 48.4 µM
4 | CCCCCCCCCCCCCCCCCCNc1ccn(C2OC(COP(=O)(O)OCC3OC(n4cc(F)c(=O)[nH]c4=O)CC3O)C(O)C2O)c(=O)n1 (centres undefined) | inactive: 44 µM
5 | COc1ccc2[nH]c3cc4c(=O)c5cc(OC)ccc5[nH]c4cc3c(=O)c2c1 | inactive: > 100 µM
6 | Cc1nc2c(n1CCC(C)C)C(=O)c1ccccc1C2=O | inactive: 35.7 µM
7 | COC(=O)c1cc2c(cc1C(=O)OC)[C@@]1(C)CCCC(C)(C)C1CC2 (some centres undefined) | inactive: 16 µM
8 | CCOC(=O)CSc1nc(-c2ccccc2)c(C#N)c(=O)[nH]1 | inactive: > 100 µM
9 | C=C1C(=O)OC2/C=C(\CO)C3OC3C3OC3(C)CC(OC(=O)/C(=C/C)COC(C)=O)C12 (centres undefined) | inactive: 18.9 µM
10 | Cc1oc2c(C)c(O)c3c(c2c1C1(C)OCCO1)C(=O)C=C(Cl)C3=O | inactive: > 100 µM
11 | COCCN(CCOC)C(=O)COc1c2cc(C(C)(C)C)cc1Cc1cc(C(C)(C)C)cc(c1OCC(=O)N(CCOC)CCOC)Cc1cc(C(C)(C)C)cc(c1OCC(=O)N(CCOC)CCOC)Cc1cc(C(C)(C)C)cc(c1OCC(=O)N(CCOC)CCOC)Cc1cc(C(C)(C)C)cc(c1OCC(=O)N(CCOC)CCOC)C2 | inactive: 3.28 µM
12 | Oc1nc2nnc(COc3ccc(Cl)cc3Cl)n2nc1Cc1ccccc1 | inactive: 54.8 µM
13 | Cc1nc(=O)[nH]c2c1C(=O)N(C(C)C)C(NC(C)C)S2 (centres undefined) | inactive: > 100 µM
14 | Cc1cc(C)n(C2OC(CO)C(O)C(O)C2O)c(=S)c1C#N (centres undefined) | inactive: > 100 µM
15 | NNC(=O)c1cc([N+](=O)[O-])ccc1NC(=O)C12CC3CC(CC(C3)C1)C2 | inactive: 3.69 µM
16 | CN(C)c1ccc(/N=N/c2ccccn2)cc1 | inactive: 33.7 µM
17 | CCN(CC)C1C(=O)NC1C#Cc1ccccc1 (centres undefined) | inactive: > 100 µM
18 | O=C1C=Cc2c1csc2Br | inactive: > 100 µM
19 | O=C1OC(=O)c2c1c(-c1ccccc1)cn2-c1ccc(Cl)cc1 | inactive: > 100 µM
20 | CCOC(=O)[C@H]1C[C@@H](C(=O)c2ccccc2)N2N=C(c3ccc(Br)cc3)C=C[C@H]12 | inactive: > 100 µM
21 | CCN(CC)Cc1ccc2cccnc2c1O | inactive: 5 µM
22 | S=C(N/N=C(/c1ccccc1)c1ccccn1)Nc1cccc(Cl)c1 | active: 0.0153 µM

Row | SMILES | GI50
23 | C=C1C(=O)OC2C1CC(OC(C)=O)/C(C)=C/CCC1(C)OC21 (centres undefined) | inactive: > 100 µM
24 | O=[N+]([O-])c1cccc2nc3ccccc3c(NCCC[N+]3([O-])CCCCC3)c12 | active: 0.721 µM
25 | CC(=O)Oc1c2c(c(CC=C(C)C)c3c1C(=O)C1=C[C@@H]4CC5C(C)(C)OC(C/C=C(/C)C(=O)O)(C4=O)[C@@]15O3)OC(C)(CCC=C(C)C)C=C2 (some centres undefined) | active: 0.469 µM
26 | CN(C(=O)c1ccccc1)c1ccc2c(c1)C(=O)c1ccccc1C2=O | inactive: > 100 µM
27 | CCOP1(=O)CC(C)=C(Cl)C(OC)C1 (centres undefined) | inactive: > 100 µM
28 | COc1ccc2c(c1)CC1c3c(ccc(OC)c3O)CC2N1C (centres undefined) | inactive: 45.3 µM
29 | OCCCCOC(c1ccccc1)(c1ccccc1)c1ccccc1 | inactive: > 100 µM
30 | COc1cc2c(cc1OC)C1Cc3cc(OC)c(OC)cc3N1CC2 (centres undefined) | inactive: 51.2 µM
31 | CCOCCOC(=O)C1CCC(=O)N1CN(C(C)=O)c1cc(OC)ccc1OC (centres undefined) | inactive: > 100 µM
32 | COC(=O)/C=C(/C(=O)OC)c1c(C)c(C)c2c(C)cc(C)cc(C)c1-2 | inactive: 47.8 µM
33 | COc1cc(C(O)c2ccc3c(c2)OCO3)cc(OC)c1OC (centres undefined) | inactive: > 100 µM
34 | Nc1c(Cl)ncnc1NCC1(CO)CCC1 | inactive: > 100 µM
35 | O=C(O)C[C@@H](Cl)[C@H](NC(=O)OCc1ccccc1)C(=O)O | inactive: > 100 µM
36 | CCOC(OCC)N1C(=O)C2(C(OCC)OCC)CC3C(OC(=O)N3N)c3cccc1c32 (centres undefined) | inactive: > 100 µM
37 | Oc1ccc(NCn2c(=S)sc3ccccc32)cc1 | inactive: > 100 µM
38 | Nc1ccc2c(=O)cc(-c3ccc(Br)s3)[nH]c2n1 | inactive: 5.61 µM
39 | CCCCCCc1cc2cc(C(=O)Nc3nc(C45CC6CC(CC(C6)C4)C5)cs3)c(=O)oc2cc1O | inactive: 17.9 µM
40 | C[C@@H]1CCC2[C@@H](C)C(=O)O[C@@H]3C4C[C@@H]1[C@@]23OO[C@@]4(C)O (some centres undefined) | inactive: > 100 µM
41 | O=C(O)CNc1c2ccccc2[n+]([O-])c2ccccc12 | inactive: > 100 µM
42 | Cc1nc2c(=O)[nH]c(=O)n(C)c2[nH]c1=O.c1ccncc1 | inactive: > 100 µM
43 | COC(=O)C1CCC(=O)N1C(c1ccccc1)c1cc(OC)c(OC)c(OC)c1 (centres undefined) | inactive: > 100 µM
44 | CC(O)(C(=O)N(O)c1ccc(Cl)cc1)c1ccc(Cl)cc1 (centres undefined) | inactive: 31.6 µM

Row | SMILES | GI50
45 | O/N=C\c1c(O)ccc2ccccc12 | inactive: 26.1 µM
46 | Cc1oc2nc(N(C)C)n3nnnc3c2c1C | inactive: > 100 µM
47 | C=CCN1C(=O)CS/C1=N\NC(=O)c1c(C)nc2sccn12 | inactive: > 100 µM
48 | C1CCN2CC3CONC3C2C1 (centres undefined) | inactive: > 100 µM
49 | CCOC(=O)C1=C(Nc2cccc3ccccc23)OC/C1=N\NC(=O)c1ccccc1O | inactive: 21.1 µM
50 | CC[C@H]1CN(C)[C@H]2Cc3c([nH]c4ccccc34)C(=O)C[C@H]1C2C(=O)OC (some centres undefined) | inactive: > 100 µM
51 | Cc1nnc2sc(-c3ccc([N+](=O)[O-])o3)nn12 | inactive: 26.2 µM
52 | CC(Nc1cccc(Cl)c1)c1ccncc1 (centres undefined) | inactive: > 100 µM
53 | O=C1CC(Sc2nc3ccc(I)cc3c(=O)n2Cc2ccccc2)C(=O)NN1 (centres undefined) | inactive: 28.1 µM
54 | O=C1Nc2nc3ccccc3n2N=C2CCCC12 (centres undefined) | inactive: 68.9 µM
55 | N#C/C(=C\c1cc(F)cc(F)c1)c1ccccn1 | inactive: 28.1 µM
56 | CCSCN(C)c1nc(N(C)C)nc(N(C)C)n1 | inactive: > 100 µM
57 | Cc1cc(C#N)c(Nc2c(C)cccc2[N+](=O)[O-])s1 | inactive: 25.3 µM
58 | BrP(NC1CCCCCC1)(c1ccccc1)(c1ccccc1)c1ccccc1 | inactive: 13.1 µM
59 | Cc1ccc(S(=O)(=O)NC(CCC(=O)NNc2ccccc2)C(=O)NNc2ccccc2)cc1 (centres undefined) | inactive: 80.4 µM
60 | Cc1ccc(NC(=O)CCc2nnc3s/c(=C\c4cccc([N+](=O)[O-])c4)c(=O)n23)cc1 | inactive: > 100 µM
61 | N#C[BH2-][n+]1cn(C2CC(OP(=O)(O)OCC3OC(n4cnc5c(N)ncnc54)CC3O)C(CO)O2)c2nc(N)[nH]c(=O)c21 (centres undefined) | inactive: > 100 µM
62 | CC(=O)O[C@@H]1CC2[C@@H](CCC3Cc4nc5c(nc4C[C@@]32C)CC2CC[C@@H]3C(CC[C@@]4(C)C3CC[C@@H]4C(C)CCCC(C)C)[C@@]2(C)C5)C2C[C@@H]3OC4(CCC(C)CO4)C(C)[C@@H]3[C@]21C (some centres undefined) | inactive: > 100 µM
63 | COC(=O)C1=C(O)C(C(=O)OC)[C@@]2(O)[C@@H](C(=O)OC)C(c3ccc(OC(=O)/C(=C/c4ccc(Cl)cc4)c4ccc(Cl)cc4)cc3)C[C@@H]1[C@@H]2C(=O)OC (some centres undefined) | inactive: 54.6 µM
64 | O=[N+]([O-])c1ccc2nc(Nc3ccccc3)c(Nc3ccccc3)nc2c1 | inactive: 3.5 µM
